Laboratory results: PubChem BioAssay AID463173 (ICCB-Longwood Screening Facility, Harvard Medical School, 2010)
The campaign covered roughly 52,000 compounds. About 4,300 (8.3%) were called active. Cut-off read from the data, not from the text of the source: active = survival mostly below about 52% (no sharp cut-off); inactive = mostly above about 56%. The list shows a part of the results.

Each molecule was assayed on DeltatarO mutant (assay: S. aureus survival, RN4220 and DeltatarO strains – OD600, teichoic acid synthesis inhibitors, primary screen (AID 463173)). Conditions: S. aureus RN4220 wild type/DeltatarO growth, OD600, 18 h, stronger effect = lower value, screened at 18.75 µg/mL (by protocol).

SMILES	survival
CCCN(CCC)C(=O)Cn1c(=O)n(CCCCCC(=O)NCc2ccc3c(c2)OCO3)c(=O)c2sccc21	inactive: 87%
CCOc1ccccc1CNC(=O)c1oc2c(c1C)-c1[nH]ncc1CC2	inactive: 89%
CC1CCN(c2ncnc3c2c(-c2ccccc2)cn3-c2ccc(Br)cc2)CC1	inactive: 84%
Cc1ccc(C)n1-c1nnc(N2CCCC(C(=O)Nc3ccccc3Br)C2)s1 (centres undefined)	inactive: 96%
CCOC(=O)c1c(NC(=O)c2cc(OC)c(OC)c(OC)c2)sc2c1CCCC2	inactive: 81%
COc1ccc(Cn2nnnc2C(c2ccccn2)N2CCc3ccccc3C2)cc1 (centres undefined)	inactive: 74%
CC1(C)OC2C(CO)OC(n3ncc(=O)[nH]c3=O)C2O1 (centres undefined)	inactive: 86%
CC(=O)Nc1ccc(Nc2ncnc3c2cnn3C)cc1	inactive: 94%
COc1ccccc1-c1cc2nc(C)c(CCC(=O)NCCc3cccc(C)c3)c(C)n2n1	inactive: 55%
O=C(CCCCCn1c(=O)c2sccc2n(CC(=O)Nc2cc(C(F)(F)F)ccc2Cl)c1=O)NCc1ccccc1Cl	inactive: 73%
CCc1cccc(-n2c(=O)c3cccnc3n2CC(=O)NCc2ccc(C)cc2)c1	inactive: 78%
C#CCN1CCc2cc(OC)c(OC)cc2C1C (centres undefined)	inactive: 101%
Cc1ccc(NC(=O)Cn2cnc3onc(-c4ccc(F)cc4)c3c2=O)c(Cl)c1	inactive: 82%
Cc1ccc(NC(=O)c2cc3ccccn3n2)cc1F	inactive: 86%
O=C(CN1C(=O)C2(SCC(=O)N2c2cccc(Cl)c2)c2ccccc21)NCc1ccccc1 (centres undefined)	inactive: 73%
O=C(CSc1nnc(-c2ccc(Cl)cc2)o1)c1ccc(Cl)cc1	inactive: 89%
COc1ccc(-c2cn3nc(N4CCC(C(=O)Nc5cc(Cl)ccc5C)CC4)sc3n2)cc1	inactive: 78%
CC(C)(C)c1ccc(OCC(=O)NCC2(N3CCOCC3)CCCCC2)cc1	inactive: 79%
Cc1cc(C)c(NC(=O)Cn2c(=O)n(CCC(=O)NCc3ccccc3Cl)c(=O)c3sccc32)c(C)c1	inactive: 87%
C=CCn1c(NC(=O)CC)nc2ccccc21	inactive: 70%
CSc1ncc(C(=O)NCc2ccc(C)cc2)c(C)n1	inactive: 69%
COc1ccc(C(=O)Nc2ccc3nc(SCC(=O)N(C)c4ccccc4)sc3c2)cc1	inactive: 101%
O=C(CSc1cn(CCNC(=O)c2cccc(C(F)(F)F)c2)c2ccccc12)Nc1ccc2c(c1)OCCO2	inactive: 87%

SMILES	survival
CC(C)(C)c1ccc2c(c1)N(CC(=O)NCCCN1CCN(c3ccccc3F)CC1)C(=O)CO2	inactive: 91%
Cc1ccc(N)cc1N(C)C	inactive: 78%
Cc1ccc(Cl)cc1N1CCN(C(=O)CSc2cc(=O)n(C)c3ccccc23)CC1	inactive: 63%
Cc1cccc(CC(=O)Nc2ccc3nc(N4CCC(C)CC4)cc(C)c3c2)c1	active: 4%
CC(Oc1ccc(Cl)cc1Cl)C(=O)NNc1nc(Cl)nc(N(C)C)n1 (centres undefined)	inactive: 81%
CC1=C(C(=O)Nc2cc(Cl)ccc2C)C(c2sccc2C)n2ncnc2N1 (centres undefined)	inactive: 55%
CCOc1ccc(S(=O)(=O)NCCc2c(C)[nH]c3c(Cl)cccc23)cc1C	inactive: 55%
CC(C)N(C(=O)Cn1cc(S(=O)(=O)Cc2ccc(Br)cc2)c2ccccc21)C(C)C	inactive: 65%
CC1CCN(S(=O)(=O)c2ccc3c(c2)N(CC(=O)NCCCN2CCCCC2)C(=O)CS3)CC1	inactive: 72%
Cc1ccc(CNC(=O)c2cc(-c3ccc(C)cc3)nc3n[nH]c(-c4cccc([N+](=O)[O-])c4)c23)cc1	inactive: 78%
O=C(c1ccc(F)cc1)N1CCC(c2nc3ccccc3s2)CC1	inactive: 76%
O=C(NCCc1ccc(Cl)cc1)C(=O)NCC(c1cccs1)S(=O)(=O)c1cccs1 (centres undefined)	inactive: 70%
CCC(C)NC(=O)CSc1c2c(nc3cc(Cl)ccc13)CCCC2 (centres undefined)	inactive: 82%
O=C(Nc1ccc2nc(SCC(=O)N3CCOCC3)sc2c1)c1ccc(Br)cc1	inactive: 83%
COc1ccc(C(=O)Nc2cc(-c3nc4ccccc4s3)ccc2OC)cc1	active: 19%
O=C(CN(CCO)CCO)N(C1CCCCC1)C1CCCCC1	inactive: 87%
CCCOC1(C(F)(F)F)NC(=O)N(c2cccc(Cl)c2)C1=O (centres undefined)	inactive: 65%
C=Cc1ccc(Cn2c(C(=O)O)c(CNC3CCCCC3)c3ccc(OC)cc32)cc1	inactive: 114%
COc1cccc(CNC(=O)C(=O)NCC(c2ccc3c(c2)OCO3)N2CCOCC2)c1 (centres undefined)	inactive: 78%
CCNc1nc(NCC)nc(NCCO)n1	inactive: 74%
CCCN1CCN(CC2=C(C(=O)OCC)C(c3ccc(OC(C)C)cc3)NC(=O)N2)CC1 (centres undefined)	inactive: 78%
CCn1c(=O)c(=O)n(CC)c2cc(N3CCCCC3)c(NC(=O)c3ccccc3OC)cc21	inactive: 91%
CSc1nc2c(sc3ccccc32)c(=O)n1Cc1ccc(C)cc1	inactive: 96%

SMILES	survival
COc1ccccc1-c1c(C)nn2c(N3CCN(c4ccccc4)CC3)cc(C)nc12	inactive: 89%
CCOc1ccc(-c2nc(CSCC(=O)NCCc3ccc(OCC)c(OCC)c3)c(C)o2)cc1	inactive: 84%
CCCN1CN=C(NS(=O)(=O)c2ccc(NC(C)=O)cc2)NC1	inactive: 77%
O=C(NCCc1ccccc1)c1ccc(Cn2c(SCc3ccccc3F)nc3cccnc32)cc1	inactive: 87%
O=C(CSc1nc(=O)n(Cc2ccncc2)c2c1CCC2)Nc1ccc(F)cc1F	inactive: 78%
CCc1ccc(NC(=O)CSc2nc(-c3cccc(OC)c3)nc3c2Cc2c(CO)cnc(C)c2O3)cc1	inactive: 87%
CCCC12CN3CC(CCC)(CN(C1)C3c1ccc(OC(C)C)cc1)C2=O (centres undefined)	active: 21%
COc1cccc(Cn2c(C)c(CNC3CCCCC3)c(C(=O)O)c2C)c1	inactive: 88%
COc1cc(C(=O)N(Cc2ccc(N(C)C)cc2)CC2CCCO2)cc(OC)c1OC (centres undefined)	active: 47%
Cc1c(C(=O)N(C)C)sc2c1c(=O)n(-c1ccc(Cl)c(Cl)c1)c(=O)n2CC(=O)N1CCCCC1C (centres undefined)	inactive: 57%
CCCc1cc(=O)[nH]c(Nc2cc(C)cc(C)c2)n1	inactive: 108%
COc1ccc(-c2noc(-c3ccc(N4CCN(c5ccccc5OC)CC4)c([N+](=O)[O-])c3)n2)cc1	inactive: 51%
CCOc1ccc(NC(=O)CSc2nnc(CNC(=O)C34CC5CC(CC(C5)C3)C4)n2CC)cc1	inactive: 92%
COc1ccc(-n2nc3cc(C)c(NC(=O)Cc4ccc(Cl)cc4)cc3n2)cc1	inactive: 56%
COc1ccc(OC)c(CNC(=O)c2ccc3c(c2)c(C)c(C)n3C)c1	inactive: 78%
CCCCN(CC)C(=O)c1nn(-c2ccc(OC)cc2)c(=O)c2c1c1ccccc1n2C	inactive: 82%
Cc1ccc(C)c(N2CCN(C(=O)c3cc4c(=O)oc5ccccc5c4s3)CC2)c1	inactive: 77%
O=C(Cn1c(=O)n(-c2ccccc2)c(=O)c2ccc(C(=O)NCc3ccc4c(c3)OCO4)cc21)Nc1ccc(Br)cc1	inactive: 79%
Cc1ccc(S(=O)(=O)N2CCN(C(=O)c3c(C)nn(-c4ccccc4)c3Cl)CC2)cc1	inactive: 63%
CCOc1cc(CNC(=O)c2ccc3nc(C(C)C)oc3c2)cc(OCC)c1OCC	active: 47%
CCS(=O)(=O)c1oc(-c2ccc(F)cc2)nc1S(=O)(=O)c1ccccc1	active: -5%
O=C(CSc1nc2ncccc2o1)Nc1cccc(C(F)(F)F)c1	active: -1%
CN(CCO)Cc1ccc2c(c1)OCO2	inactive: 90%

SMILES	survival
COc1ccc(N2CCN(S(=O)(=O)CCNC(=O)Cc3ccc(OC)c(OC)c3)CC2)cc1	inactive: 88%
Cc1nc(SCC(=O)Nc2nsc(-c3ccc(C(C)(C)C)cc3)n2)c2c3c(sc2n1)CCCC3	inactive: 78%
COc1ccc(N2CC(NC(=O)C3CCCCC3)CC2=O)cc1OC (centres undefined)	inactive: 78%
O=C(c1cnc2c(c1)COc1ccc(Cl)cc1-2)c1ccccc1O	inactive: 105%
O=C(CCn1nnc2ccccc21)N1CCC(O)(c2cccc(F)c2)CC1	inactive: 81%
O=C(O)c1ccc(N=NSCCO)cc1	inactive: 79%
CCOc1ccc(NC(=O)CCCOc2cc(=O)n(C)c3ccccc23)cc1	inactive: 80%
Clc1ccccc1CSc1nnc(C2CCNCC2)o1	inactive: 89%
Cc1ccc2nc(-c3ccc(C)o3)c(Nc3ccc4c(c3)OCCO4)n2c1	inactive: 72%
COc1ccc(NC(=O)c2oc3ccccc3c2NC(=O)Cc2coc3ccc(C)cc23)cc1	inactive: 70%
Cc1ccccc1CSc1nc(-c2cccc(F)c2)nc2c1Cc1c(CO)cnc(C)c1O2	inactive: 75%
CN(C)C(=O)c1ccc2c(c1)N(CC(=O)NCc1ccccc1Cl)C(=O)C1CCCCN21 (centres undefined)	inactive: 74%
COc1ccc(OC)c(CNC(=O)c2nn(C)c3c2CS(=O)(=O)c2ccccc2-3)c1	inactive: 74%
COC(=O)c1ccc(NC(=O)CCc2c(C)nc3c(c(C)nn3C(C)(C)C)c2C)cc1	inactive: 59%
CC(=O)Nc1ccc(Nc2c3c(c(C#N)c4nc5ccccc5n24)CCC3)cc1	inactive: 91%
CCN(C(=O)CSc1nc(-c2ccccc2)no1)c1ccccc1	inactive: 79%
COc1ccc2c(c1)N(C)/C(=C1/SC(=Nc3ccc(C)cc3)N(C)C1=O)S2	inactive: 102%
Cc1ccc2occ(-c3cc(-c4ccc(F)cc4)nc4c3COc3ccc(F)cc3-4)c(=O)c2c1	inactive: 92%
CCOc1cc(NS(=O)(=O)c2ccc(OC)cc2)c(OCC)cc1NC(=O)CC	inactive: 75%
O=S(=O)(Nc1ccc(-c2nc3ccccc3o2)cc1)c1ccccc1	active: 24%
